Reference: the supplement of paper PMC12217912
Some of the results follow. The full chains were built here from the parent and the listed change. Inactive controls read about 0.05.

B1: TEV protease; numbered along this chain (parent)
chain: MGESLFKGPRDYNPISSSICHLTNESDGHTTSLYGIGFGPFIITNKHLFRRNNGTLVVQSLHGVFKVKDTTTLQQHLVDGRDMIIIRMPKDFPPFPQKLKFREPQREERICLVTTNFQTKSMSSMVSDTSCTFPSGDGIFWKHWIQTKDGQCGSPLVSTRDGFIVGIHSASNFTNTNNYFTSVPKNFMELLTNQEAQQWVSGWRLNADSVLWGGHKVFMVKPEEPFQPVKEATQL

Variants of: B1
Assay: raw area under fraction-flipped curve 0-4 h after induction (AUC4h, not background-subtracted), DNA-recorder readout of cleavage of the substrate (dimensionless); higher = more cleavage of the substrate by the protease variant
Conditions: temperature: 34 °C; time window: 0-4 h after rhamnose induction
Experimental: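 In vivo DNA recorder in E. coli TOP10(DE3) ΔrhaA at 34 °C. Each TEVp single-site mutant (parent TEVp 0) is paired with a single-site variant of the 7-mer TEVs (canonical ENLYFQ|S). The substrate sits between flexible linkers in a Bxb1-sfGFP-TEVs-SsrA fusion, so cleavage stabilises Bxb1 and speeds flipping of a recombination array, read by NGS. The value is the raw area under the fraction-flipped curve over 0-4 h after rhamnose induction (AUC4h), with ≥20 reads per time point. It is not background-subtracted; inactive controls average about 0.047.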
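Further: Bxb1 expression induced with 0.2% (w/v) L-rhamnose at OD600 near 0.5, cultures sampled hourly, flipped fraction per protease–substrate barcode pair counted by paired-end Illumina sequencing.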

Variant	area with substrate DNLYFQS	area with substrate FNLYFQS	area with substrate GNLYFQS	area with substrate HNLYFQS	area with substrate KNLYFQS	area with substrate LNLYFQS	area with substrate NNLYFQS	area with substrate PNLYFQS	area with substrate SNLYFQS	area with substrate TNLYFQS	area with substrate YNLYFQS	area with substrate INLYFQS	area with substrate MNLYFQS	area with substrate QNLYFQS	area with substrate VNLYFQS	area with substrate WNLYFQS	area with substrate RNLYFQS
F92M	0.0849	0.0882	0.0738	0.0654	0.0549	0.0619	0.061	0.0577	0.0627	0.0617	0.0657						
F92Q	0.0883		0.0632		0.0619	0.0575	0.0871		0.0576	0.0665	0.0723	0.0632	0.0587	0.0839	0.05	0.0211	
F92S	0.0763	0.0629				0.0561			0.0659	0.102			0.0697	0.097			
P94H	0.0851		0.0588	0.0609	0.0683			0.0835		0.083	0.0552	0.0621	0.0638			0.0574	
P94L	0.0775									0.0922	0.0637						
F95E	0.0434	0.0587	0.0416	0.0533	0.0559	0.0584	0.0499	0.0381	0.0297	0.0608			0.0402	0.0569	0.0568	0.0469	
P96D	0.0893			0.079	0.0337	0.0925	0.0772		0.0661				0.0751			0.0555	
Q97M	0.0889	0.0614		0.058	0.0688		0.0701			0.0704	0.0218	0.0704	0.0515		0.0601	0.0581	
Q97V	0.0505									0.0557							
L99T	0.0782							0.0864		0.0642							
K100P	0.103		0.0501	0.0505	0.0597	0.0585	0.0521	0.0087	0.0687	0.0627	0.0614			0.0559	0.08		
F101A	0.0666	0.0567						0.0651				0.0468				0.0462	
F101G	0.0565	0.0502							0.0388			0.0508	0.0472			0.0539	
F101M	0.083	0.0612		0.0624	0.0657			0.0594	0.0534	0.0632	0.0572		0.0585	0.0683		0.0517	0.0701
F101P	0.0502	0.0531	0.057	0.0368	0.0399			0.0536			0.0512		0.0416		0.0387	0.049	
R102S	0.0559	0.0413		0.0543	0.0462			0.0569	0.0527	0.0459	0.0412	0.052		0.0491	0.0649	0.0513	0.0463
E103N	0.0592		0.0645		0.0663			0.0282									
Q105V	0.0909		0.0721	0.0857		0.0733	0.0568	0.0709		0.0639					0.0894	0.0584	
R106C	0.109		0.0519	0.0581				0.0548		0.0641			0.0754	0.076	0.0757	0.062	
